Experimental data reported in PubChem BioAssay AID1466 (National Center for Advancing Translational Sciences (NCATS), 2008).
Among all 200,000 compounds or so, about 10 (0.005%) were called active. Inconclusive results, whose numbers are uncertain, are shown with a selection of clear calls. The call rests on the fitted dose curve; in most records, active means well fitted inhibition curve with a large enough effect; inconclusive means small, poorly fitted or top-dose-only effect, or effect the other way, or another doubt; inactive means no such curve, though single readings can be large or run the other way. Potencies of inconclusive entries are left out as doubtful fits.

These molecules were tested against Lysosomal alpha-glucosidase (Homo sapiens) (UniProt P10253) (assay: qHTS Assay for Inhibitors of Human alpha-Glucosidase as a Potential Chaperone Treatment of Pompe Disease). Conditions: purified human GAA, 4-MU-alpha-glucoside fluorescence; activity change, negative = inhibition: at 76.9 µM (top of the series) unless noted.
How it was run: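 Activity normalized between no-enzyme (basal) and enzyme-only wells. Conditions: 4 nM human enzyme, 400 uM fluorogenic substrate, citrate/phosphate pH 5.0 with Tween-20, 20 min room temperature, compounds up to 77 uM.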
Potency means the concentration at half of the fitted maximal effect; tags describe the fitted curve by direction and shape.
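Wherever activity change, negative = inhibition is given: plate controls were uninhibited enzyme wells for no effect and no-enzyme background for full effect.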

| SMILES | Potency | activity change, negative = inhibition |
| --- | --- | --- |
| CNC(=S)N/N=C(\C)c1ccc(N2CCOCC2)cc1 | inconclusive [inhibitor, full curve] |  |
| COc1ccc(NS(=O)(=O)c2ccc(NC(=O)CCNS(=O)(=O)c3ccc(C)cc3)cc2)cc1 | inconclusive [inhibitor, single point] |  |
| COCCSc1ccccc1C(=O)Nc1ccccc1C(C)C | inconclusive [inhibitor, single point] |  |
| Cc1ccc(S(=O)(=O)NC(CC(C)C)C(=O)Oc2ccc3c4c(c(=O)oc3c2)CCC4)cc1 (centres undefined) | inconclusive [activator, partial curve] |  |
| COc1ccc(C(=O)CC(Nc2ccc([N+](=O)[O-])cc2)c2ccc(OC)cc2)cc1 (centres undefined) | inconclusive [inhibitor, single point] |  |
| CCOC(=O)N1CCN(C(=O)C(=O)NN)CC1 |  | inconclusive: 15.4% [activator] |
| O=C1CC(c2ccco2)CC2=C1C(c1ccccc1)n1nc(C(F)(F)F)nc1N2 (centres undefined) | inconclusive [activator, partial curve] |  |
| Cc1ccccc1-n1ncc(C(C)NC(=O)c2ccccc2)c1C (centres undefined) |  | inconclusive: 16.8% [activator] |
| CC(C)NC(=O)c1ccc(C2SCC(=O)N2Cc2ccccc2)cc1 (centres undefined) | inconclusive [inhibitor, single point] |  |
| C/C(=N\NC(=O)c1ccc(O)cc1)c1ccc2c(c1)Nc1ccccc1S2 |  | inactive: -9.16% |
| O=C(Nc1ccc2c(c1)nc1n2CCN(C2CCCCC2)C1)NC1CCCCC1 |  | inactive: -0.51% |
| CCOC(=O)C1CCN(C(=O)c2cc3c(=O)n4ccccc4nc3n2C)CC1 | inconclusive [activator, partial curve] |  |
| CCN(CC)S(=O)(=O)c1cc(C(=O)Nc2ccccc2C(=O)O)ccc1OC | inconclusive [inhibitor, partial curve] |  |
| CCCCn1nnnc1SCC(=O)NCc1ccco1 | inconclusive [inhibitor, single point] |  |
| COc1ccc(C(=O)C2CCCN(S(=O)(=O)c3cccnc3)C2)c(C)c1 (centres undefined) |  | inconclusive: 18.7% [activator] |
| CCOc1ccc(C2C(C(=O)Nc3ccc(F)cc3)=C(C)Nc3nc(CCCO)nn32)cc1 (centres undefined) | inconclusive [inhibitor, partial curve] |  |
| CCCNC(=O)Nc1cc(OCC)c(N2CCOCC2)cc1OCC |  | inconclusive: 3.74% [activator] |
| COc1ccc(Cn2c(N)c(C#N)c3nc4ccccc4nc32)cc1 | inconclusive [activator, partial curve] |  |
| COCCCNC(=O)CCc1nc2cccnc2n1Cc1ccc(OC)cc1 | inconclusive [inhibitor, partial curve] |  |
| Cc1[nH]c2ccccc2c1C(O)CN1CCN(c2cccc(C(F)(F)F)c2)CC1 (centres undefined) | inconclusive [activator, partial curve] |  |
| O=C(CN(Cc1ccccc1)S(=O)(=O)c1ccc2c(c1)OCCO2)Nc1ccc2c(c1)OCCO2 | inconclusive [inhibitor, full curve, poor fit] |  |
| CN(CC(=O)Nc1ccc(S(=O)(=O)N2CCCC2)cc1)Cc1cccc(Cl)c1Cl | inconclusive [inhibitor, single point] |  |

| SMILES | Potency | activity change, negative = inhibition |
| --- | --- | --- |
| Cc1c(Br)c([N+](=O)[O-])nn1C(C)C(=O)NCc1cccs1 (centres undefined) | inconclusive [inhibitor, single point] |  |
| CCCCn1c2nc3ccccc3nc2c2c(=O)n(CCC(C)C)cnc21 |  | inactive: -1.17% |
| COc1ccc(NC2CC(=O)N(c3cccc(C)c3)C2=O)cc1 (centres undefined) |  | inconclusive: -15% [inhibitor] |
| Cc1ccc(C2=NOC3(CC(=O)N(c4ccccc4)C3=O)C2)cc1 (centres undefined) |  | inconclusive: -15.5% [inhibitor] |
| O=C1C(=Cc2cccs2)C(=O)c2ccccc21 |  | inactive: 3.03% |
| CC(C)NC(=O)CCNC(=O)c1ccc(F)cc1 | inconclusive [inhibitor, single point] |  |
| CCOC(=O)c1ccc(NC(=S)Nc2ccc3[nH]c(=O)[nH]c3c2)cc1 | inconclusive [inhibitor, single point] |  |
| Cc1c(CCOC(=O)CC23CC4CC(CC(C4)C2)C3)sc[n+]1CC(=O)c1ccc(Br)cc1 | inconclusive [inhibitor, full curve, poor fit] |  |
| CC1CCc2c(C(=O)Nc3ccc(N4CCOCC4)cc3)csc2C1 (centres undefined) | inconclusive [inhibitor, single point] |  |
| C=CCn1cc(-c2ccccc2)cc(C#N)c1=O | inconclusive [activator, partial curve] |  |
| CCOC(=O)C1(Cc2ccccc2)CCN(Cc2ccon2)CC1 |  | inconclusive: 16.9% [activator] |
| CC(C)CC1(C)NC(=O)N(Cc2cc([N+](=O)[O-])cc3c2OCOC3)C1=O (centres undefined) | inconclusive [inhibitor, full curve] |  |
| COC(=O)\C(C(C)=O)=C(/C=C/C=C/N(C)C)N(C)C | inconclusive [inhibitor, partial curve] |  |
| Cc1[nH]c2ccccc2c1N=Nc1ccc(F)cc1 | inconclusive [inhibitor, single point] |  |
| CCOC(=O)C1=C(C)Nc2ccccc2N=C1NC(=O)c1cccc(S(=O)(=O)NCc2ccccc2)c1 | inconclusive [inhibitor, full curve, poor fit] |  |
| COc1ccc(C(=O)COC(=O)CCn2nnc(-c3cccc(O)c3OC)n2)cc1 | inconclusive [inhibitor, partial curve, poor fit] |  |
| COc1cc(C(c2nnnn2C(C)(C)C)N2CCN(c3nc4ccccc4s3)CC2)ccc1O (centres undefined) | inconclusive [inhibitor, single point] |  |
| Cn1cccc1/C=C1\Cc2ccccc2C1=O |  | inactive: -7.46% |
| COc1ccc(NC(=S)N/C(=N/S(=O)(=O)c2ccc(C)cc2)c2ccccc2)cc1 | inconclusive [inhibitor, partial curve] |  |
| CCOC(=O)N1CCN(C(=O)COc2ccc3c(c2)C(=O)CC(C)(C)O3)CC1 | inconclusive [activator, partial curve] |  |
| CCOC(=O)C1Cn2c(nc3c(c2=O)C(C)(CC)Cc2ccccc2-3)S1 (centres undefined) | inconclusive [inhibitor, single point] |  |
| N#CC1=C(N)SC(N)=C(C#N)C1c1cccc(Oc2ccccc2)c1 | inconclusive [inhibitor, single point] |  |

| SMILES | Potency | activity change, negative = inhibition |
| --- | --- | --- |
| CN(CCCNC(=O)c1cc2c(=O)[nH]c3ccccc3c2n1C)Cc1ccccc1 | inconclusive [inhibitor, single point] |  |
| CCc1cc(C(=O)OC)c(NC(=O)CC2SC(=NC)N(C)C2=O)s1 (centres undefined) |  | inconclusive: 6.4% [activator] |
| C=CCN(c1cccc(C(F)(F)F)c1)S(=O)(=O)c1cccc(C(=O)OCC(=O)NC(N)=O)c1 | inconclusive [inhibitor, partial curve] |  |
| COc1ccccc1/C=N/NC(=O)CC(=O)NCc1cccnc1 | inconclusive [inhibitor, full curve, poor fit] |  |
| CCC1CN(C(=O)Nc2cccc(C)c2)c2cc(C)ccc2O1 (centres undefined) | inconclusive [inhibitor, partial curve, poor fit] |  |
| CC1CCc2sc(C(=O)OC(C)C(=O)Nc3ncc(Cl)cc3Cl)cc2C1 (centres undefined) | inconclusive [inhibitor, single point] |  |
| CCOC(=O)Cc1nn(Cc2nc(-c3ccc(C)cc3)cs2)c(=O)c2ccccc12 | inconclusive [inhibitor, partial curve] |  |
| C=C1c2cc(OC)ccc2NC(=O)N1CC |  | inconclusive: 27.8% [activator] |
| CCOC(=O)C1(C)NC(c2ccccc2F)C2C(=O)N(CC)C(=O)C21 (centres undefined) | inconclusive [inhibitor, single point] |  |
| CC(=O)Nc1cccc(NC(=O)CSc2ncc(-c3ccc(Cl)cc3)n2Cc2ccco2)c1 | inconclusive [inhibitor, single point] |  |
| Cc1ccc(Sc2ncccc2C(=O)O)cc1 | inconclusive [inhibitor, single point] |  |
| NC(=O)c1ccccc1NS(=O)(=O)c1cccs1 |  | inconclusive: -15.5% [inhibitor] |
| COc1ccc(C)cc1NC(=O)CN1CCN(S(=O)(=O)c2ccc(C(C)C)cc2)CC1 | inconclusive [inhibitor, full curve, poor fit] |  |
| Cc1ccc(-n2c(=O)c(C#N)cc3c(=O)n4ccccc4nc32)cc1C | inconclusive [activator, full curve] |  |
| FC(F)(F)c1ccc(N2CCOCC2)c(Nc2nc3ccccc3n3cnnc23)c1 |  | inconclusive: -17.8% [inhibitor] |
| O=S(=O)(c1ccccc1)C1(S(=O)(=O)c2ccccc2)CCCC1 | inconclusive [inhibitor, single point] |  |
| CCN1CCN(C(=O)CSc2cc(=O)n(C)c3ccccc23)CC1 |  | inconclusive: -16.2% [inhibitor] |
| O=C(Nc1ccccc1)N1CCN(c2ncccn2)CC1 | inconclusive [inhibitor, full curve, poor fit] |  |
| CCOC(=O)CSc1cc(CSc2ccccc2)nc(-c2ccccc2)n1 |  | inconclusive: -16.2% [inhibitor] |
| CCN(CC)S(=O)(=O)c1ccc(Cl)c(C(=O)NCC2CCCO2)c1 (centres undefined) | inconclusive [inhibitor, single point] |  |
